± gives the standard deviation of the averaged measurements. The full ranking holds about 33,000 sequences; the median of “E-score (dimensionless, -0.5 to 0.5)” is about -0.046, and the highest 2% start at about 0.36. This is one part of the list.
What follows are sequences tested on T1, SpTbr T-box DNA-binding domain (GST fusion) (assay: PBM E-score of 8-mer (E-score (dimensionless, -0.5 to 0.5)); Tbr is Tbrain of the sea star Patiria miniata (Pm) or the sea urchin Strongylocentrotus purpuratus (Sp); higher = stronger binding preference; most listed sequences are background and not binding sites). Details: the construct has about 5 more residues each side.
T1 sequence: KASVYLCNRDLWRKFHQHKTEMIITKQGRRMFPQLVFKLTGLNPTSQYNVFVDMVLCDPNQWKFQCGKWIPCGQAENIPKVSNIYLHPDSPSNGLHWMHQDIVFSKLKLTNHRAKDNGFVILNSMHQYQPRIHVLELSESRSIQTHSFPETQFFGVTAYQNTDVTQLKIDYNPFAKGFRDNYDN
Summary of the method: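 Universal Agilent oligonucleotide arrays, made double-stranded by primer extension, were incubated with 200 nM GST-fused Tbr T-box DNA-binding domain in PBS (pH 7.5). The protein was expressed in BL21 E. coli at 20 °C and purified by glutathione affinity chromatography. After scanning and quantification, the Universal PBM Analysis Suite assigned an enrichment E-score to each ungapped 8-mer, averaged over duplicate arrays.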

Sequence	PBM E-score of 8-mer
CCAAGTCG	0.122 ± 0.021
GCAGATAA	-0.0315 ± 0.053
AATTATGA	-0.182 ± 0.02
AGCTTACG	-0.159 ± 0.075
CCCACCTC	0.251 ± 0.043
GAGACAGC	0.0769 ± 0.072
AATGCTGA	-0.099 ± 0.042
GCCGCTGA	-0.107 ± 0.061
GACCCTCA	-0.114 ± 0.075
GTATAAGA	-0.132 ± 0.052
CGAAGTCC	0.0736 ± 0.012
ATATACGC	-0.0844 ± 0.021
TGCCCGCA	-0.0405 ± 0.051
ATTCTCTG	-0.29 ± 0.048
GAGCTATA	-0.0433 ± 0.055
AGTTATCA	0.198 ± 0.009
CGCCTCCG	0.146 ± 0.02
AGAACTAT	-0.108 ± 0.058
ACCCGAGC	0.0518 ± 0.058
TGTATCAA	-0.0245 ± 0.011
AGTGCTGG	-0.102 ± 0.013
GCCAGACA	-0.0989 ± 0.049
GGTGTCAC	0.475 ± 0.0052
CTACTGAC	0.0451 ± 0.03
ATACCGGG	-0.103 ± 0.018

Sequence	PBM E-score of 8-mer
ACAAACTG	0.057 ± 0.034
AGGCGAGG	0.193 ± 0.0034
CGGGAAGA	-0.0538 ± 0.039
ATGTTATC	0.149 ± 0.0061
AGGCAAAT	-0.365 ± 0.017
AAAAACAG	-0.162 ± 0.053
TCGACCCA	-0.015 ± 0.054
ATGCATGC	-0.193 ± 0.14
AACGGAAC	-0.0893 ± 0.033
AGCAATAA	-0.179 ± 0.038
GACTTGCA	0.198 ± 0.0068
AGATCGCT	-0.05065 ± 0.00033
ATTCAAAT	-0.0886 ± 0.04
CTCGCTAA	0.232 ± 0.043
AGTTGTAT	-0.0278 ± 0.013
ATTACGGG	-0.168 ± 0.046
GAGCGTTA	0.1593 ± 0.0015
ATTGGCAC	0.322 ± 0.024
GATACGGA	0.0503 ± 0.043
CTACGGAC	-0.231 ± 0.045
TAAGATCA	-0.1842 ± 0.0016
GCAAGCCA	-0.168 ± 0.056
GAATATGC	-0.0698 ± 0.059
AGACACCA	0.251 ± 0.032
ACCCCGCA	0.106 ± 0.051

Sequence	PBM E-score of 8-mer
CCTGTTGA	0.116 ± 0.0097
AGAGTACA	-0.262 ± 0.074
CCCCACTC	-0.0512 ± 0.064
AGCTGGCG	0.0986 ± 0.012
ACCTGCTC	-0.0268 ± 0.017
CATGTAAC	-0.0676 ± 0.027
TAGAGTGA	0.162 ± 0.024
AGACTAAT	-0.2373 ± 0.00068
ACCAGATA	-0.0597 ± 0.012
CACCAATA	0.197 ± 0.0024
CGCACGTC	0.331 ± 0.013
GAGCCGTA	-0.122 ± 0.023
GCAATTCA	0.089 ± 0.076
CAAAGGAA	-0.118 ± 0.043
CATTTGGG	-0.261 ± 0.0028
AAGTCTAT	-0.285 ± 0.042
CGCTATTA	0.155 ± 0.013
AGGTATCG	0.0459 ± 0.013
CTGGGGTC	-0.162 ± 0.016
AAGAGGTA	-0.272 ± 0.035
GACATCTC	-0.107 ± 0.0082
CGTTGTAG	-0.0713 ± 0.056
AACGCTTA	0.144 ± 0.038
TATGCGAA	0.131 ± 0.068
CTTAGGCA	-0.0896 ± 0.013

Sequence	PBM E-score of 8-mer
ACCGTCAC	0.272 ± 0.034
CTTGGCTA	-0.124 ± 0.031
CCACCCTC	0.0803 ± 0.068
CCCAGGAA	-0.193 ± 0.029
ATGCCGAA	-0.2586 ± 0.0025
GAAGACGA	-0.195 ± 0.06
ACGTTGCA	-0.0846 ± 0.046
ATTCGAAT	-0.199 ± 0.027
GACCCCGC	-0.245 ± 0.053
ACTATTTG	-0.081 ± 0.045
AGTGGACG	-0.105 ± 0.019
AACCTGTA	-0.209 ± 0.018
GTAACTAC	-0.0297 ± 0.026
AAATCTCT	0.0717 ± 0.12
CGACAGAC	0.171 ± 0.012
CGGAGGCA	-0.217 ± 0.0037
CGAAGCCA	-0.144 ± 0.14
AGGTACAA	-0.136 ± 0.019
ATTCCGAC	-0.0322 ± 0.021
AACCACAA	0.00265 ± 0.013
GCGCCTTA	0.295 ± 0.0093
AGCAATTA	-0.228 ± 0.029
AACTGAGG	0.0486 ± 0.026
GGTGAACA	-0.0711 ± 0.04
AATGACTG	-0.144 ± 0.088

Sequence	PBM E-score of 8-mer
ACGTTCCA	-0.0981 ± 0.02
ACGCAATC	-0.0853 ± 0.12
CCTGGACG	0.024 ± 0.021
AACTAGGT	-0.0891 ± 0.0078
CTATCAGC	0.0496 ± 0.084
CCATTGAA	-0.132 ± 0.0095
GGATCGTA	-0.205 ± 0.042
GTCGGCTA	-0.102 ± 0.029
CTAACCCC	-0.0153 ± 0.06
GAGGGATA	-0.142 ± 0.083
ATTACGTG	-0.0763 ± 0.018
CGCTTACG	0.1618 ± 0.0016
GGATCTAA	-0.135 ± 0.14
ACACTCCA	0.29 ± 0.007
CCAAGCAG	-0.24466 ± 0.00023
AGGCGTGG	0.321 ± 0.044
AACCAGTC	-0.176 ± 0.021
AATCTGTG	0.132 ± 0.022
AACTAGCG	-0.202 ± 0.03
CTCATGAC	-0.0676 ± 0.011
AGACGGCG	-0.0973 ± 0.026
AGTCTTTA	-0.184 ± 0.076
AGTATCAT	-0.27 ± 0.032
CTCGCGAC	0.311 ± 0.025
CCAAGACA	-0.0435 ± 0.011

Sequence	PBM E-score of 8-mer
TACGGGCA	-0.0818 ± 0.02
ATAGATAG	-0.136 ± 0.014
ACGCACAT	0.152 ± 0.038
ACACGTCA	0.319 ± 0.017
ATTCCTCA	-0.0778 ± 0.036
CCGAAACA	-0.00465 ± 0.06
CTTGACTA	0.0379 ± 0.0078
AGCTGGAA	-0.143 ± 0.038
ACACATTA	0.291 ± 0.031
ACGCATAA	-0.0185 ± 0.04
AGCCCTGG	-0.298 ± 0.1
GGCCCTCA	-0.225 ± 0.035
GCCACTAC	0.0706 ± 0.028
GGCACGTA	-0.00172 ± 0.0099
AGTCGGAG	-0.225 ± 0.015
GCAACGGC	0.0811 ± 0.022
ATACGGGG	-0.183 ± 0.0059
CTTTCGAC	-0.0638 ± 0.037
AAACTGGC	0.153 ± 0.041
ATCAGAAC	-0.294 ± 0.0065
AGGGGGTA	-0.0444 ± 0.0045
AGCTGGCA	0.0839 ± 0.018
CCTTGCGA	0.183 ± 0.056
ATTATACC	0.0935 ± 0.021
ATATTGCA	0.0552 ± 0.017

Sequence	PBM E-score of 8-mer
TAGCCAAA	-0.254 ± 0.021
TGACCCAA	-0.129 ± 0.0059
CTCTAGTC	-0.18 ± 0.059
GCCTTCAA	-0.21549 ± 6.4e-05
ATATCGCC	0.12 ± 0.016
AGTGCATG	-0.376 ± 0.015
AACACACT	0.211 ± 0.022
CCTAGCGC	0.142 ± 0.0078
CAACCGTC	0.0998 ± 0.056
ACTTTCAC	0.303 ± 0.019
ACAAAGCT	-0.181 ± 0.03
AATAGTAG	-0.128 ± 0.04
AAAGTACG	-0.142 ± 0.097
GTCATACA	0.0278 ± 0.069
GTTTGATA	-0.189 ± 0.062
CGCAATTA	-0.0615 ± 0.068
AACACTTA	0.386 ± 0.031
CATGGATA	-0.26 ± 0.017
GCGAAAAC	0.222 ± 0.05
AATAACGT	-0.0159 ± 0.055
CGTTAACA	0.4129 ± 0.0026
CGGGAGTC	-0.119 ± 0.032

Source: the supplement of paper PMC4166925
